Some of the results follow.
Each sequence was assayed on PfHDP1 homeodomain (GST-tagged) (assay: gcPBM binding intensity (ln(normalized median fluorescence intensity)); higher = stronger DNA binding).
In short: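 Alexa488 anti-GST antibody, scanned at 488 nm, detected GST-tagged P. falciparum DNA-binding domains that had been expressed in E. coli and incubated for 1 h on an Agilent 4 × 180k array. The array carried primer-extended double-stranded 36-bp intergenic genomic probes and negative controls. Binding intensity is the highest Masliner-normalised natural-log median intensity across replicate spots of either orientation of each probe.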

Sequence	gcPBM binding intensity (ln)
TGCAGTCTGGAGAAACGTACACAGTATCTGGTAACA [XGTACX_site2014]	6.1
GGCTTTTTTTAATATGCACACATATATTTTATATAT [CACACA_site8647]	10.2
TATAATAATCTAATCTGTAGTTTTTTTTTTTTTTTT [CACACA_negctrl_site1206]	6.36
AAAAAAAAACAGAAAACACACAAATTATCTTATAAT [CACACA_site4326]	6.53
ATACTCACGTGACACACACACAATATAAATAAATAT [CACACA_site7862]	6.86
AATAAATAAATAAATAAATATATATATATATATATA [GTGCAC_negctrl_site224]	9.34
TTATATTAAAAAAGATGTACGTTTAGGAAAAATATA [XGTACX_site7456]	6.53
TTTCTAAATAATTATAATGAATCTGCAAACAAGCAT [XGTACX_negctrl_site391]	6.15
TTAGATTTAAATATCATACACACTTTATATATAATA [CACACA_site959]	6.7
ATAAAAATAAACATACGTACTTACACGAATATACAT [XGTACX_site5989]	6.55
CTTGAAAAAATAAAAACACACAATGTGTTTTTGAAT [CACACA_site3283]	6.16
ATATTACTATATTATTGTACGTTAAAAAAAAAAAAT [XGTACX_site8734]	6.52
TTTTTTTTTTTTAATACACACATATTTATATTTATT [CACACA_site7802]	6.63
TTTTTCTTAAAAAATTGTACACATATATATATATAT [XGTACX_site542]	9.21
ATTAAGTTAAACATTACACACTATGTATTATTTATG [CACACA_site973]	6.33
CTAAGCTAAGTAAGCTGTACTTCACCTTTATACAGT [XGTACX_site3087]	6.19
CTATTTTTATATTATTGTACGTTGTTATTATATATA [XGTACX_site1469]	6.79
ATATAGAACACCTGTGCATGCAAGTGCTAAAAAATT [TGCATGCA_site213]	8.59
TAATATTATTTAGAGTGTACTCATAAATCAACAAAA [XGTACX_site5269]	6.33
TTTATATTTATATATACACACATATACATCCTATTT [CACACA_site3079]	6.61
CATATTTACTATCACACACACGATATATATAAATAT [CACACA_site1241]	6.87
TTTTTTTTTTTTTTCTCACACATTTAATGATAATAT [CACACA_site5513]	6.28
TTTTTTTTTTTTTGCACACACATAATAGGTACAAAT [CACACA_site3577]	10.1

Sequence	gcPBM binding intensity (ln)
ATATATATATATATATGTACTAACCTTTTAAAATAT [XGTACX_site6488]	9.31
AATTGGGTAGGACATGCATGAGAAATTAATATTGCA [TGCATGCA_site356]	7.19
ATGTCAAACATTTGCACACAAAAAAATAAAAATTAA [CACACA_site692]	10.6
TATTACATTGTTGAATGTACTCATTTAAAATTTATA [XGTACX_site7987]	6.17
AATCAAAGCCCACATACACACACATATATATATATA [CACACA_site7987]	9.28
TTATACTAAATGAACACACACACATCTATATTTATA [CACACA_site6199]	6.68
AAATTAGACTATAATACACACATAAAAAAAAAATCA [CACACA_site7672]	6.51
AATTAAAATAATAATACACACATCATAGAAAAAGAC [CACACA_site292]	7.51
AGGTTTTCTTAAATAGTGCATTATAACAAAAATAAA	9.58
TCACGTATGTATATTACACACATACATATTATTCAC [CACACA_site4276]	6.75
ATATTATATATATATAAACACACAAATATTTTTATA [CACACA_site8486]	6.56
ATAAAATGAACCTTTTGTACATATATATATATATAT [XGTACX_site4610]	9.29
AACATCTCATATCGTACTACACTCATATATATATAT [XGTACX_site170]	9.21
CATAAATAAGCTTTAGTGCATTATATTTAAATTTTT	9.97
TTTAATAATAATAAAAGTACACAAATATAAAGGAAA [XGTACX_site5203]	6.86
TGAATATTTCTATATACACACATATATATATATATA [CACACA_site3451]	9.26
CTAAAATACAGACACACACACACATATATATATATA [CACACA_site4150]	9.26
GGGTTTTTAAAATGTAGTACATATGTAAACATCAAA [XGTACX_site1262]	6.7
TTAAAATAGGGCGAAGAAATTTTCTGTAAACATTTG [CACACA_negctrl_site1010]	6.33
ATATGCTTATATTATATATATAAGTCTATATATTTT [XGTACX_negctrl_site349]	6.17
ATATATATAAAATGTTGTACATATATATAAATAATA [XGTACX_site1661]	6.15
ATATAATATGGTATTACACACTGTTAAAAGTATGGC [CACACA_site5190]	6.54
ATATATATTTTTATAACACACAATGAAGTACATTAC [CACACA_site8270]	7.07

Sequence	gcPBM binding intensity (ln)
TCTGTATATTTCGCGCGTACGAACAAATTGATAATT [XGTACX_site7965]	6.78
CACATACAGACATACACACATACACATATACGCATA [CACACA_site1745]	7.18
TAAAGTAAAGACATACTTATTTTCCATCCACTTCTT [CACACA_negctrl_site1288]	6.63
AAACAATAAAAGATTACACACATATATAGCATCTAT [CACACA_site5012]	6.44
TTTCATTTGTCGTTATGTACTTATTAAATATTATTA [XGTACX_site7709]	6.92
ATATATATATATATATGTACATATTTTATTTAATTT [XGTACX_site1807]	9.2
TTTTTTTTTTTTTTTTGTACGAATAAACAAGTTATT [XGTACX_site5473]	6.21
TGTATTAAAAATTTGGTGCAACTTTTACATAATAAT	10.8
AAAAAAAAAAAATACACACACACATATTTATTTATA [CACACA_site6483]	6.86
AAAAAAAAAAATAAATGTACAAAATAATGGGGAACA [XGTACX_site8723]	7.03
GTGAATGATTTAAGTACACACCGGTATTTATTCAAA [CACACA_site4950]	6.32
AAAAGAATTAATTTATGTACTAATTTCAAGAAATAA [XGTACX_site3241]	5.78
CTCGATCAAGTGTATGCATGTACCAGTGAACAAAAA [TGCATGCA_site635]	6.98
TCCTTACACACACTTTTTTTTTTTTTTTTTTCTACA [GTGCAC_negctrl_site263]	6.89
CTTTTTCCTTTATAAAGTACTTAAAATATTTAGATA [XGTACX_site4259]	6.48
ATATATTATCAACTTACACACAGAAAACTATAATAA [CACACA_site6275]	6.75
ATATATTTAAAAAAATGTACAAATCATAAATGCAAG [XGTACX_site4230]	6.75
AGAAATTAAATGTAAGCACACATAAATTATACACAT [CACACA_site9098]	6.97
AAAAAATTATACCAGTGTACTTTTTTGGTTTTTCTT [XGTACX_site2601]	5.9
TATAATGTTGATGATAGTACGTATGAGTTCAAAAAA [XGTACX_site3651]	6.53
CATAAGATTTTTACATGTACATATTTATAATATATT [XGTACX_site6578]	6.9
TTCTTTTTTTTTTTTTCATGTATATTAAACTTTTCA [TGCATGCA_negctrl_site592]	6.46
GATATATAAATTGACACACACATATATACCTATATA [CACACA_site6689]	6.56

Sequence	gcPBM binding intensity (ln)
AATATTTATATTAACTGTACAGAAAATATCTTTGCT [XGTACX_site8130]	6.23
TATGCCATGGCATAATGTACATAAGTGACCTCATAA [XGTACX_site1294]	6.52
AATATAAAAATGTTTACACACACACCGAAATATATT [CACACA_site8800]	6.99
TATATATTTATTTATTGTACACTCTTTAAGAATACA [XGTACX_site2569]	6.49
TATATATATATATATATATATATATATGTGTATGTA [TGCATGCA_negctrl_site255]	9.31
GATTCGATCTATATATGTACACATAAATATTTTTTG [XGTACX_site7015]	6.74
ATACACAAGAATATGTTGCACTTTTATATTCGTATG	7.3
AATAAAATTGACCATTCACACAAGAAAAATTAATCA [CACACA_site5636]	6.13
TATATATATAAAAGTTGTACAGTGTTTTATATAGTT [XGTACX_site7085]	7.33
AATTAGCTATTTAAAAATATATAAAATTTATATATA [CACACA_negctrl_site390]	6.33
ATCATATTGAATATTTAACACACATTTCGCTTAATT [CACACA_site8652]	6.74
GAAATAGAGAGACACACACACATATATTTATGTATT [CACACA_site7794]	6.24
TTCTTTATTATATGCACACGTACATATAATATATAT [CACACA_site2018]	9.96
ATTTATATTAATGGATAAATAAATGTGTACTTGATA [CACACA_negctrl_site24]	6.42
AAAAAAAAAAAACACACACACATATATATATATATA [CACACA_site732]	9.27
ATCAACAAAACATACACACACATATAGATTTATATA [CACACA_site7415]	6.75
TTATGTAAAATCGATACATGCATTAATCATTTTATA [TGCATGCA_site493]	5.96
TATGATATGTTATACACACACGTATTTATGAATTGA [CACACA_site7591]	6.92
TCATATTTCCATAGGAGTACATAAAAAAAATAATAT [XGTACX_site7601]	6.79
AACTATAAAAAAAATACACACATTACCAAAAATATA [CACACA_site1529]	6.76

Source: the supplement of paper PMC11417369
